This note sets out measurements from article PMC3493617 (Journal of the American Chemical Society, 2012).

SMILES strings stand for the structures.

Targets include AfUGM Y104A (Aspergillus fumigatus, UniProt Q4W1X2, Y104A); AfUGM Y317A (Aspergillus fumigatus, UniProt Q4W1X2, Y317A); AfUGM R447A (Aspergillus fumigatus, UniProt Q4W1X2, R447A).
Common to all, as to type: biochemical

Usually Kd stands for the concentration at which binding is half-saturated. Low values mean a tighter complex, high ones a looser complex. Take `NC(=O)C1=CN([C@@H]2O[C@H](COP(=O)(O)OP(=O)(O)OC[C@H]3O[C@@H](n4cnc5c(N)ncnc54)[C@H](OP(=O)(O)O)[C@@H]3O)[C@@H](O)[C@H]2O)C=CC1` [NADPH]: the “decrease in catalytic efficiency” value on AfUGM Y104A (Tyr104 mutation vs AfUGM) and at AfUGM Y317A (Tyr317 mutation vs AfUGM) was 3 fold throughout. Moreover, the Kd was 54 ± 4 µM at AfUGM Y104A (Y104A mutant), 100 ± 10 µM on AfUGM Y317A (Y317A mutant) and 39 ± 6 µM at AfUGM R447A (R447A mutant). Moreover, the “Variational Effect (kred/Kd of variant)/(kred/Kd of AfUGM)” value came to 0.34 ± 0.04 at AfUGM Y104A (Y104A mutant), 0.28 ± 0.03 on AfUGM Y317A (Y317A mutant) and 0.0005 ± 0.0001 at AfUGM R447A (R447A mutant). For the same compound, the kred/Kd was 41000 ± 3000 M⁻¹ s⁻¹ on AfUGM Y104A (Y104A mutant), 34000 ± 3000 M⁻¹ s⁻¹ at AfUGM Y317A (Y317A mutant) and 60 ± 10 M⁻¹ s⁻¹ on AfUGM R447A (R447A mutant). Also, the kred amounted to 2.20 ± 0.04 s⁻¹ at AfUGM Y104A (Y104A mutant, anaerobic, 15 °C, pH 7.0); 3.36 ± 0.09 s⁻¹ at AfUGM Y317A (Y317A mutant, anaerobic, 15 °C, pH 7.0); 0.0024 ± 0.00007 s⁻¹ on AfUGM R447A (R447A mutant, anaerobic, 15 °C, pH 7.0). Besides, at AfUGM R447A (R447A vs AfUGM), the “factor by which catalytic efficiency is lowered” value was found to be 2000 fold.
